Laboratory results from PMC10632493.
These are yes or no findings as the source states them, for the method shown. In cells and extracts the contact can be indirect. Some entries that bind do so weakly or less than the wild type. For part of these data: Tags and fused reporters may be left off the sequences shown.

Sequences of proteins named here, by UniProt entry; tags and fusion partners are left off.
UniProt O95271: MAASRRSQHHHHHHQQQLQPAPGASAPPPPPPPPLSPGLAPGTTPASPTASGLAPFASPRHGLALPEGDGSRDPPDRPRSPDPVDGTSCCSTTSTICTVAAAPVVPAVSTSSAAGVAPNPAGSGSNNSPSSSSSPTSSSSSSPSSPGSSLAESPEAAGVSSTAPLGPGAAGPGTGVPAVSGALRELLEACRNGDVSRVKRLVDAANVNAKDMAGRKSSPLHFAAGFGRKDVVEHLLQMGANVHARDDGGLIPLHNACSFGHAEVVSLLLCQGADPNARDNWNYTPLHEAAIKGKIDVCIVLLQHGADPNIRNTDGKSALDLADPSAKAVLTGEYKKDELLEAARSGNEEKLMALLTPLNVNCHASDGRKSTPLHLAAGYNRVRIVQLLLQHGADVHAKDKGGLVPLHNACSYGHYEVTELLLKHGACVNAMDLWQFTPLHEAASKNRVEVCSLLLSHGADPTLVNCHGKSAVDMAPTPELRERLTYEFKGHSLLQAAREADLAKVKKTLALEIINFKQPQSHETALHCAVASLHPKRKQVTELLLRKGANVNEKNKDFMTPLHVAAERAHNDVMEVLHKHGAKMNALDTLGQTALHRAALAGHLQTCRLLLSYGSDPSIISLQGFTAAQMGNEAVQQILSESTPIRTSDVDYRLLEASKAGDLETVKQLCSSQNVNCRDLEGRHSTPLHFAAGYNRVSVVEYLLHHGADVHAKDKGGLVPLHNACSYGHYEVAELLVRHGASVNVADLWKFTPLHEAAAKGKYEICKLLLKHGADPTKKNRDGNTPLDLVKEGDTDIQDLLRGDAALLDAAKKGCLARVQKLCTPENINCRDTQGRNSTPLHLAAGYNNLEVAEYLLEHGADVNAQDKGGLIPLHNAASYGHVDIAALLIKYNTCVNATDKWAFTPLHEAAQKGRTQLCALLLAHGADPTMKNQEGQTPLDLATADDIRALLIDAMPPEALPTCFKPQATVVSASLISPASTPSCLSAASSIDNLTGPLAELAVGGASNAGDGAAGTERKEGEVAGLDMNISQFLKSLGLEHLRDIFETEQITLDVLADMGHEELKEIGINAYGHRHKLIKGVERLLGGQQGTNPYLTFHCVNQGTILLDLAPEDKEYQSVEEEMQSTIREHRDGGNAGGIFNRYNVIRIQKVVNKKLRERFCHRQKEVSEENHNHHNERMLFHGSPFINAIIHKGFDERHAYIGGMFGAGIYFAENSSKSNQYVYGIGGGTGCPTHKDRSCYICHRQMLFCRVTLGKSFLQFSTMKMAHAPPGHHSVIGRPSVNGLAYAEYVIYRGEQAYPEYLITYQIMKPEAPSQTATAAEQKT

Experiments:
[1] = target: Flag-epitope-tagged RNF166 (FlagRNF166) (UniProt Q96A37); assay: co-IP; U2OS cells transfected with Flag plasmids; TNE lysate; anti-Flag beads 2 h at 4 °C; immunoblot for endogenous TNKS1
[2] = target: FlagRNF166 2GA (G19A and G47A) (UniProt Q96A37); assay: as above
FlagRNF166 G19A = FlagRNF166 G19A (UniProt Q96A37); assay: as above
FlagRNF166 G47A = FlagRNF166 G47A (UniProt Q96A37); assay: as above
[3] = target: Flag-epitope-tagged RNF166 (FlagRNF166) (UniProt Q96A37); assay: co-IP; HEK293T cells transfected with Flag plasmids, with or without TNKSi (10 µM); TNE lysate; anti-Flag beads 2 h at 4 °C; immunoblot for endogenous TNKS1
[4] = target: FlagRNF166 UIM deletion (UIMΔ; UΔ) (UniProt Q96A37); assay: as above
[5] = target: FlagRNF166 UIM point mutant (A229P/S233Q; U**) (UniProt Q96A37); assay: as above
[6] = target: T1, UIM of RNF166 fused to GFP (GFPU) (UniProt Q96A37); assay: as above
T1 sequence: DEEAAFQAALALSLSEN

[7] = target: Flag-epitope-tagged RNF166 (FlagRNF166) (UniProt Q96A37); assay: co-IP; SuperHeLa cells transfected with Flag plasmids, with or without TNKSi (10 µM); lysate in TNE buffer (10 mM Tris pH 7.8, 1% NP-40, 0.15 M NaCl, 1 mM EDTA); anti-Flag beads 2 h at 4 °C; immunoblot for endogenous TNKS1
[8] = target: FlagBAP (bacterial alkaline phosphatase) [phosphatase: P00634]; assay: as above
[9] = target: FlagRNF166 C2HC mutant (C98G; C*) (UniProt Q96A37); assay: as above
[10] = target: FlagRNF166 Di19 mutant D1* (C152R) (UniProt Q96A37); assay: as above
[11] = target: FlagRNF166 Di19 mutant D2* (C182G) (UniProt Q96A37); assay: as above
[12] = target: FlagRNF166 RING mutant (C33S/C36S; R**) (UniProt Q96A37); assay: as above
[13] = target: FlagRNF166 UIM deletion (UIMΔ; UΔ) (UniProt Q96A37); assay: as above

binding [1]: binds | binding [2]: binds | binding (FlagRNF166 G19A): binds | binding (FlagRNF166 G47A): binds | binding [3]: binds | binding [4]: binds weakly | binding [5]: binds weakly | binding [6]: no binding | binding [7]: binds | binding [8]: no binding | binding [9]: binds | binding [10]: no binding | binding [11]: no binding | binding [12]: binds | binding [13]: binds
Substance: endogenous tankyrase 1 (TNKS1) (from UniProt O95271 1-1327) (enzyme)
